Measurements published in article PMC3234281.
These are yes or no findings as the source states them, for the method shown. Some entries that bind do so weakly or less than the wild type.

By UniProt entry, the sequences of proteins in these tests, tags left out. Residues count along the entry.
UniProt P18852, residues 2-110: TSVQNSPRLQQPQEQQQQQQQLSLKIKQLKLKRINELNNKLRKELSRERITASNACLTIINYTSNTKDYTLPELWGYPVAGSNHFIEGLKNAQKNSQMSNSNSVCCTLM

How the values were obtained:
[1] = biological target: T1, AKR1 ankyrin repeats (amino acids 2–311), anchored to the membrane (S. cerevisiae) (UniProt P39010); assay: two-hybrid; split-ubiquitin Dual membrane yeast-2-hybrid (Dualsystems Biotech), strain NMY51; AKR1 variants as bait in pBT3-STE or ankyrin repeats in pBT3-OST4, STE18 as prey in pPR3-N; growth on SD-LWHA + 1 mM 3-aminotriazole at 25°C, 48-60 hours
T1 sequence: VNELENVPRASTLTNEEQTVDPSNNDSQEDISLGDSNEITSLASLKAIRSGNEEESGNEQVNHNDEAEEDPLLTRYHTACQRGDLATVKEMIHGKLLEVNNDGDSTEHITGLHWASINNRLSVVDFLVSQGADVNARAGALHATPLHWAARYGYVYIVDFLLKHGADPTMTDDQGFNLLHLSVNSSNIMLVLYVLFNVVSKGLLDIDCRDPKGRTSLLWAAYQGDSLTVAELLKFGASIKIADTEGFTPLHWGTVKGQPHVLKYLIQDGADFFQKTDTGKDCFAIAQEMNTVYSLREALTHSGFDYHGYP

[2] = biological target: T2, AKR1 ΔN (S. cerevisiae) (UniProt P39010); assay: as above
T2 sequence: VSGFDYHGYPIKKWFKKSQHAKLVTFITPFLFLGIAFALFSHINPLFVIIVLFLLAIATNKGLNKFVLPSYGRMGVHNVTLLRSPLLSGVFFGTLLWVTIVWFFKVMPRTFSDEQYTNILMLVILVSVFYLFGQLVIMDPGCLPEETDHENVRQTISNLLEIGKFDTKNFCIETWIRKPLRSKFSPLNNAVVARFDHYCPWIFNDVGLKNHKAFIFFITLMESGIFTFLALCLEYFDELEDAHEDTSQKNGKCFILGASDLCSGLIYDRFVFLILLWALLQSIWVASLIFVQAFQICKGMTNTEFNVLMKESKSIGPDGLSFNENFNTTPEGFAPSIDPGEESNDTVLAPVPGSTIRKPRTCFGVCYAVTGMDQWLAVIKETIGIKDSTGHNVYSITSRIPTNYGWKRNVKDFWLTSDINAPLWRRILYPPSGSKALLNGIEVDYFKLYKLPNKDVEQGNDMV

[3] = biological target: T3, AKR1 (S. cerevisiae) (UniProt P39010); assay: as above
T3 sequence: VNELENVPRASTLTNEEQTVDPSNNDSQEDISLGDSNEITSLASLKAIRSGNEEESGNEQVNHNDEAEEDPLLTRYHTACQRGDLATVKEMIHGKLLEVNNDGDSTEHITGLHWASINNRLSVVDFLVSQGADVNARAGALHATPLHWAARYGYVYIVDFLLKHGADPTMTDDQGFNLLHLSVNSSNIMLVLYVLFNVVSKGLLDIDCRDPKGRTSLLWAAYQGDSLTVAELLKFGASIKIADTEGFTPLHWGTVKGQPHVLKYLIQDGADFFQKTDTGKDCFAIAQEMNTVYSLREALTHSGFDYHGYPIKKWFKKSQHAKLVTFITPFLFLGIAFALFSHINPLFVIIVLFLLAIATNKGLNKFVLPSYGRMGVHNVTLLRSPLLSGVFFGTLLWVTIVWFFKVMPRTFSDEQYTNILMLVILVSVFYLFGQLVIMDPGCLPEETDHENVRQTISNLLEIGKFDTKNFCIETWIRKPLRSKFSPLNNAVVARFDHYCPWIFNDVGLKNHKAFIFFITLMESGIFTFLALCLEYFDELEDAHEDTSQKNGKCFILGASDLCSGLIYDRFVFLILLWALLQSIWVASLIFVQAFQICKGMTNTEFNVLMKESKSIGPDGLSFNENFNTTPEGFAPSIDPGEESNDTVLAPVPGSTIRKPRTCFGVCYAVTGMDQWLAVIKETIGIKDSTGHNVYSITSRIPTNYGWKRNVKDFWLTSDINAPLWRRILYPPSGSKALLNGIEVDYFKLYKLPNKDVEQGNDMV

[4] = biological target: T4, AKR1 C^500S (S. cerevisiae) (UniProt P39010); assay: as above
T4 sequence: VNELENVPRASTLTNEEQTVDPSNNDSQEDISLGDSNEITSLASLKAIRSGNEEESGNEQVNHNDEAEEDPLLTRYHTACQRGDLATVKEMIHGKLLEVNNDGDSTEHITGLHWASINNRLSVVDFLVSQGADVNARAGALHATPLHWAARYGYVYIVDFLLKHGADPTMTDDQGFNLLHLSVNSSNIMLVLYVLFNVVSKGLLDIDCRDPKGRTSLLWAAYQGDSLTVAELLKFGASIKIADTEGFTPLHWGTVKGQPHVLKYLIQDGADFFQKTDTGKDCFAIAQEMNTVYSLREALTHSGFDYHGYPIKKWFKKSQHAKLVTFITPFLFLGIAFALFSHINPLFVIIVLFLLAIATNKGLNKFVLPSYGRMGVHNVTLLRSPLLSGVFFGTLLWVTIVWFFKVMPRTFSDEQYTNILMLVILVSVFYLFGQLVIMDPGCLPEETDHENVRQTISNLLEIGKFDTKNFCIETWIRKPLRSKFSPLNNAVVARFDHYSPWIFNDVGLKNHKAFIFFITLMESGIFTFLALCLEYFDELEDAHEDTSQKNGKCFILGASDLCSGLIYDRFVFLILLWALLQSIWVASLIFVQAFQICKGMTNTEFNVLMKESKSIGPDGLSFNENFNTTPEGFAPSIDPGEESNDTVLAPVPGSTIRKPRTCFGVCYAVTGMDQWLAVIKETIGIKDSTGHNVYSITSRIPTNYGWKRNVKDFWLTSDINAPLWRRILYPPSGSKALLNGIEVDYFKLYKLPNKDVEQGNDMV

[5] = biological target: T3, AKR1 (S. cerevisiae); assay: two-hybrid; split-ubiquitin Dual membrane yeast-2-hybrid, strain NMY51; AKR1 variants as bait in pBT3-STE against AKR1 variants as prey in pPR3-STE, pairwise; growth on -LWHA
[6] = biological target: T4, AKR1 C^500S (S. cerevisiae); assay: as above
[7] = biological target: T2, AKR1 ΔN (S. cerevisiae); assay: as above

Row | Molecule | binding [1] | binding [2] | binding [3] | binding [4] | binding [5] | binding [6] | binding [7]
1 | STE18 (from UniProt P18852 2-110) | binds | no binding | binds | binds | – | – | –
2 | AKR1 (enzyme, UniProt P39010 2-764) VNELENVPRASTLTNEEQTVDPSNNDSQEDISLGDSNEITSLASLKAIRSGNEEESGNEQVNHNDEAEEDPLLTRYHTACQRGDLATVKEMIHGKLLEVNNDGDSTEHITGLHWASINNRLSVVDFLVSQGADVNARAGALHATPLHWAARYGYVYIVDFLLKHGADPTMTDDQGFNLLHLSVNSSNIMLVLYVLFNVVSKGLLDIDCRDPKGRTSLLWAAYQGDSLTVAELLKFGASIKIADTEGFTPLHWGTVKGQPHVLKYLIQDGADFFQKTDTGKDCFAIAQEMNTVYSLREALTHSGFDYHGYPIKKWFKKSQHAKLVTFITPFLFLGIAFALFSHINPLFVIIVLFLLAIATNKGLNKFVLPSYGRMGVHNVTLLRSPLLSGVFFGTLLWVTIVWFFKVMPRTFSDEQYTNILMLVILVSVFYLFGQLVIMDPGCLPEETDHENVRQTISNLLEIGKFDTKNFCIETWIRKPLRSKFSPLNNAVVARFDHYCPWIFNDVGLKNHKAFIFFITLMESGIFTFLALCLEYFDELEDAHEDTSQKNGKCFILGASDLCSGLIYDRFVFLILLWALLQSIWVASLIFVQAFQICKGMTNTEFNVLMKESKSIGPDGLSFNENFNTTPEGFAPSIDPGEESNDTVLAPVPGSTIRKPRTCFGVCYAVTGMDQWLAVIKETIGIKDSTGHNVYSITSRIPTNYGWKRNVKDFWLTSDINAPLWRRILYPPSGSKALLNGIEVDYFKLYKLPNKDVEQGNDMV | – | – | – | – | no binding | – | –
3 | AKR1 C^500S (enzyme, UniProt P39010 2-764) VNELENVPRASTLTNEEQTVDPSNNDSQEDISLGDSNEITSLASLKAIRSGNEEESGNEQVNHNDEAEEDPLLTRYHTACQRGDLATVKEMIHGKLLEVNNDGDSTEHITGLHWASINNRLSVVDFLVSQGADVNARAGALHATPLHWAARYGYVYIVDFLLKHGADPTMTDDQGFNLLHLSVNSSNIMLVLYVLFNVVSKGLLDIDCRDPKGRTSLLWAAYQGDSLTVAELLKFGASIKIADTEGFTPLHWGTVKGQPHVLKYLIQDGADFFQKTDTGKDCFAIAQEMNTVYSLREALTHSGFDYHGYPIKKWFKKSQHAKLVTFITPFLFLGIAFALFSHINPLFVIIVLFLLAIATNKGLNKFVLPSYGRMGVHNVTLLRSPLLSGVFFGTLLWVTIVWFFKVMPRTFSDEQYTNILMLVILVSVFYLFGQLVIMDPGCLPEETDHENVRQTISNLLEIGKFDTKNFCIETWIRKPLRSKFSPLNNAVVARFDHYSPWIFNDVGLKNHKAFIFFITLMESGIFTFLALCLEYFDELEDAHEDTSQKNGKCFILGASDLCSGLIYDRFVFLILLWALLQSIWVASLIFVQAFQICKGMTNTEFNVLMKESKSIGPDGLSFNENFNTTPEGFAPSIDPGEESNDTVLAPVPGSTIRKPRTCFGVCYAVTGMDQWLAVIKETIGIKDSTGHNVYSITSRIPTNYGWKRNVKDFWLTSDINAPLWRRILYPPSGSKALLNGIEVDYFKLYKLPNKDVEQGNDMV | – | – | – | – | no binding | no binding | –
4 | AKR1 ΔN (domain or fragment, UniProt P39010) VSGFDYHGYPIKKWFKKSQHAKLVTFITPFLFLGIAFALFSHINPLFVIIVLFLLAIATNKGLNKFVLPSYGRMGVHNVTLLRSPLLSGVFFGTLLWVTIVWFFKVMPRTFSDEQYTNILMLVILVSVFYLFGQLVIMDPGCLPEETDHENVRQTISNLLEIGKFDTKNFCIETWIRKPLRSKFSPLNNAVVARFDHYCPWIFNDVGLKNHKAFIFFITLMESGIFTFLALCLEYFDELEDAHEDTSQKNGKCFILGASDLCSGLIYDRFVFLILLWALLQSIWVASLIFVQAFQICKGMTNTEFNVLMKESKSIGPDGLSFNENFNTTPEGFAPSIDPGEESNDTVLAPVPGSTIRKPRTCFGVCYAVTGMDQWLAVIKETIGIKDSTGHNVYSITSRIPTNYGWKRNVKDFWLTSDINAPLWRRILYPPSGSKALLNGIEVDYFKLYKLPNKDVEQGNDMV | – | – | – | – | no binding | no binding | no binding
